# The list shows a part of the results. Read counts after selection give these values, which scatter widely. Scores sum up all selected molecules that hold the word; the word was not tested alone.
# Key:
# Experiment in all cases: 6-mer SELEX enrichment z-score vs GST control; IMP3 is the RNA-binding protein IGF2BP3; higher = more enriched by binding
# IMP3 KH1-4 = conditions: construct: KH1-4 (164-579); SELEX round: R4
# Experimental: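 SELEX-seq with GST-tagged IMP3 KH1-4 (Pro164-Lys579) and an N40 RNA pool, round 4. 6-mer z-score of sequence-tag enrichment normalised to the corresponding GST SELEX round; RNA k-mers written as DNA (T for U).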
# IMP3 RRM1-2 = conditions: construct: RRM1-2 (1-163); SELEX round: R2
# Sequence of IMP3 RRM1-2 (chain, as listed by the source): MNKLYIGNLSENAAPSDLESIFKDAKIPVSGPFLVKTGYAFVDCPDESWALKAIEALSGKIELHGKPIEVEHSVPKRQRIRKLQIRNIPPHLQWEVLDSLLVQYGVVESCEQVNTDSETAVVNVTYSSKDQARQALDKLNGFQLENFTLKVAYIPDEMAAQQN
# Experimental: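 SELEX-seq with GST-tagged IMP3 RRM1-2 (Met1-Asn163) and an N40 RNA pool, round 2. 6-mer enrichment z-score normalised to GST SELEX. RNA written as DNA (T = U).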
# IMP3 full-length = IMP3 full-length (UniProt O00425); conditions: construct: FL IMP3 (1-579); SELEX round: R4
# Sequence of UniProt O00425 (O00425 whole entry): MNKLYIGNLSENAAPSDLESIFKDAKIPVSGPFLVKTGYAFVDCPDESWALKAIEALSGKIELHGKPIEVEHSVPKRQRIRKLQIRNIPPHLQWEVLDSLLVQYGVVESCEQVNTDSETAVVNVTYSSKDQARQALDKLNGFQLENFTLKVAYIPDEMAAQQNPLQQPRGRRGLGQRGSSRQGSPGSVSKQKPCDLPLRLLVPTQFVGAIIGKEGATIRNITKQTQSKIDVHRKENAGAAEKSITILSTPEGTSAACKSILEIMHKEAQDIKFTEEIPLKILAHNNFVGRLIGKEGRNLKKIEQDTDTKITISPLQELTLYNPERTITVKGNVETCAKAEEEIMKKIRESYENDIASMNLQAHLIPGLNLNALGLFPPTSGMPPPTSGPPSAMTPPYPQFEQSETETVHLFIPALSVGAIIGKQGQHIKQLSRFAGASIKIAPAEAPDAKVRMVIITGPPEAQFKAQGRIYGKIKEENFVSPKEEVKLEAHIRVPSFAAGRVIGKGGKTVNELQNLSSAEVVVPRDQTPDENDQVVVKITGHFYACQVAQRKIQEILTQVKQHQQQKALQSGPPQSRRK
# Experimental: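 SELEX-seq with GST-tagged full-length IMP3 and an N40 RNA pool, round 4. Each 6-mer is scored as an enrichment z-score of sequence tags containing it, normalised to the matching GST SELEX round. RNA written as DNA (T = U).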
# IMP3 KH1-2 = conditions: construct: KH1-2 (164-376); SELEX round: R4
# Sequence of IMP3 KH1-2 (chain, as listed by the source): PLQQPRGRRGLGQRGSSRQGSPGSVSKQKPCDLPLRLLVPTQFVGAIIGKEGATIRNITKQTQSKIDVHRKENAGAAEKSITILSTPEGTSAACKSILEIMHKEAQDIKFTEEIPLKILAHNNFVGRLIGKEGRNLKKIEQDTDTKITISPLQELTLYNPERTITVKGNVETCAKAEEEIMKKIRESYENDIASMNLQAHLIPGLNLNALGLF
# Experimental: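 SELEX-seq with GST-tagged IMP3 KH1-2 (Pro164-Phe376) and an N40 RNA pool, round 4 (stringent 300/600 mM KCl washes). 6-mer z-score of sequence-tag enrichment normalised to the corresponding GST SELEX round; RNA k-mers written as DNA (T for U).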
# IMP3 KH3-4 = conditions: construct: KH3-4 (377-579); SELEX round: R4
# Sequence of IMP3 KH3-4 (chain, as listed by the source): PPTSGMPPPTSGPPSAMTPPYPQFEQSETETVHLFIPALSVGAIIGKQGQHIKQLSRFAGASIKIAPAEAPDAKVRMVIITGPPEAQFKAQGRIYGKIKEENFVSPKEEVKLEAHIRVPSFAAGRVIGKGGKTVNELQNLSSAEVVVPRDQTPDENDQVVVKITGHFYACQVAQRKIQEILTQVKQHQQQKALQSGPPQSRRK
# Experimental: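 SELEX-seq with GST-tagged IMP3 KH3-4 (Pro377-Lys579) and an N40 RNA pool, round 4. 6-mer z-score of sequence-tag enrichment normalised to the corresponding GST SELEX round; RNA k-mers written as DNA (T for U).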
# Sequence of IMP3 KH1-4 (chain, as listed by the source): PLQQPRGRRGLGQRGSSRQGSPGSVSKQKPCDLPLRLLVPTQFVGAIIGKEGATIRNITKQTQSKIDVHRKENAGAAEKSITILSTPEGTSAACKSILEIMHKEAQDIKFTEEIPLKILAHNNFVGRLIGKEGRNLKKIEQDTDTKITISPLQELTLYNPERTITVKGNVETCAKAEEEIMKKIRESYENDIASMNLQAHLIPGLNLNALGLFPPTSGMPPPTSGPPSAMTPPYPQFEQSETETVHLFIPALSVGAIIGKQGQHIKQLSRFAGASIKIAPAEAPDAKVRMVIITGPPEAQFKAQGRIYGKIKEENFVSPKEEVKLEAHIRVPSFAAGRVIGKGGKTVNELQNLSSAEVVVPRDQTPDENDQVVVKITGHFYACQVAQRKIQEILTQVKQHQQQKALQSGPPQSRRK
Sequence,6-mer SELEX enrichment z-score (IMP3 KH1-4),6-mer SELEX enrichment z-score (IMP3 RRM1-2),6-mer SELEX enrichment z-score (IMP3 full-length),6-mer SELEX enrichment z-score (IMP3 KH1-2),6-mer SELEX enrichment z-score (IMP3 KH3-4)
TTGTAG,-0.062,0.232,-0.176,-0.085,0.149
AGGCTC,0.04,0.49,0.461,0.022,0.05
CTCTTT,0.489,0.415,0.197,0.606,0.486
GGTAGA,-0.224,-0.034,-0.081,-0.113,0.048
CGGCCG,0.792,-0.067,1.43,0.797,0.651
CAAAGA,-0.822,-1.24,-1.17,-0.792,-0.301
GCCACC,0.369,-0.21,0.645,0.283,-0.643
TTTAGT,0.391,0.441,0.202,0.341,0.557
ATTATA,1.9,0.155,0.489,1.66,2.83
GGCTCG,-0.189,0.501,0.388,-0.056,-0.014
CGGTTA,-0.041,0.084,-0.029,-0.108,0.167
GGCGCA,0.242,0.431,1.45,0.234,0.346
TGCTAG,0.046,0.13,-0.047,0.014,0.106
CTATTG,0.346,0.184,-0.09,0.24,0.39
AGAGAG,0.431,-0.58,-0.043,0.321,0.565
GTTCGC,-0.072,0.281,0.032,-0.066,-0.177
CTACGC,-0.226,0.014,-0.267,-0.171,-0.377
ACTTCG,-0.346,0.127,-0.237,-0.329,-0.423
CTTAAC,0.131,-0.356,-0.606,0.148,0.139
TTCGGC,1.09,0.39,1.48,0.779,0.958
TTATTA,1.43,0.257,0.345,1.22,1.94
TCTCTG,-0.16,0.418,0.039,-0.078,-0.125
TCGATT,0.047,0.127,-0.15,0.008,0.188
TTACGT,0.157,0.067,-0.176,0.035,0.199
CCTGAT,-0.238,-0.34,-0.72,-0.359,-0.476
TTGTGT,0.133,0.408,-0.051,0.064,0.262
TCTAAT,0.529,0.1,-0.056,0.427,0.58
AGTCTA,-0.219,0.048,-0.203,-0.34,-0.231

Sequence,6-mer SELEX enrichment z-score (IMP3 KH1-4),6-mer SELEX enrichment z-score (IMP3 RRM1-2),6-mer SELEX enrichment z-score (IMP3 full-length),6-mer SELEX enrichment z-score (IMP3 KH1-2),6-mer SELEX enrichment z-score (IMP3 KH3-4)
CGTTTT,-0.352,0.204,-0.202,-0.256,-0.157
TCAGAC,-0.049,0.929,0.445,0.049,-0.237
CTGTGG,0.117,0.199,0.091,0.112,0.109
CGGACT,-0.338,-0.266,-0.252,-0.461,-0.353
GCTTCT,-0.116,0.459,0.178,0.034,0.032
TCGTCC,-0.151,0.107,0.133,-0.272,-0.41
CTGCTC,-0.065,0.229,0.069,-0.036,-0.263
ACTGCA,1.14,0.061,0.704,1.31,0.377
AATGCA,1.45,-0.083,0.578,1.12,1.27
GCACAA,1.9,1.07,2.28,1.57,1.43
AACATG,1.41,0.914,1.12,1.06,1.56
TAAGAC,-0.118,-0.736,-0.806,-0.114,0.208
CGATGC,-1.29,-0.497,-0.705,-1.24,-1.3
CCGAAC,-2.53,-1.22,-1.65,-2.09,-2.77
AACGTG,-1.08,-1.06,-1.16,-1.26,-1.02
TTACTT,0.789,0.291,0.159,0.773,0.933
AAGATA,1.2,-1.27,-0.492,0.998,2.05
ATTACT,1.02,0.281,0.125,1.04,1.2
CTGAGA,-0.826,-0.907,-0.913,-0.752,-0.649
AGGTGA,0.298,-0.3,0.132,0.287,0.513
CGCAAC,-0.162,0.347,0.637,0.008,-0.606
ACCGAA,-1.96,-2.02,-1.8,-1.49,-2.04
GGATTG,0.389,-0.094,-0.042,0.267,0.527
CCCTAG,-0.837,-0.348,-0.722,-0.81,-0.98
AATAGG,1.06,-0.223,0.243,0.75,1.39
TGAGAT,0.43,-0.343,-0.203,0.271,0.721
ATATAT,2.19,0.373,0.722,2.05,3.08
